Measured values reported in PubChem BioAssay (NCATS).
The shares of active, inactive and inconclusive entries below differ from those in the screen. Potencies beside an inconclusive call are fits to weak or partial responses and may not hold up. Activity calls are given as the source filed them. The call rests on the fitted dose curve; in most records, active means well fitted curve in the direction sought with a large enough effect; inconclusive means small, poorly fitted or top-dose-only effect, or another doubt; inactive means no such curve, though single readings can be large; an effect the other way counts as inactive or inconclusive.

Tests used:
[1] = qHTS of pediatric cancer cell lines to identify multiple opportunities for drug repurposing: Primary screen for BT-37 cells (AID 1347094)
Procedure, shortened: (§1)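 Quantitative HTS format: each compound titrated (MIPE 11 points from 0.78 nM, NPC 8 points from 0.59 nM) onto cells plated 5 hours earlier. After 48 h at 37 degrees C, CellTiter-Glo luminescence was recorded.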

[2] = qHTS of pediatric cancer cell lines to identify multiple opportunities for drug repurposing: Primary screen for NB-EBc1 cells (AID 1347095)
Procedure, shortened: as §1

[3] = qHTS of pediatric cancer cell lines to identify multiple opportunities for drug repurposing: Primary screen for U-2 OS cells (AID 1347096); further: nearly all actives have a fitted effect of over 50% in size
Procedure, shortened: (§2)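 Cells (500-1,000/well) rested 5 h, then received compounds for 48 h; metabolically active cells were measured by CellTiter-Glo luminescence. Final concentrations spanned up to 46 µM (MIPE, 11-point) or 0.59 nM-46 µM (NPC, 8-point) in primary screens, 11-point in follow-ups.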

[4] = qHTS of pediatric cancer cell lines to identify multiple opportunities for drug repurposing: Primary screen for Saos-2 cells (AID 1347097); details: Saos-2 viability, CellTiter-Glo ATP luminescence, 48 h; activity change, negative = cytotoxic: at 46 µM (top of the series) unless noted; further: nearly all actives have a fitted effect of over 40% in size
Procedure, shortened: as §1

[5] = qHTS of pediatric cancer cell lines to identify multiple opportunities for drug repurposing: Primary screen for SK-N-SH cells (AID 1347098); details: SK-N-SH viability, CellTiter-Glo luminescence, 48 h; activity change, negative = cytotoxic: at 57 µM (top of the series) unless noted; further: nearly all actives have a fitted effect of over 65% in size;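 on activity change, negative = cytotoxic: DMSO served as neutral control and bortezomib at 2.3 µM as positive control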
Procedure, shortened: as §2

[6] = qHTS of pediatric cancer cell lines to identify multiple opportunities for drug repurposing: Primary screen for NB1643 cells (AID 1347099); further: nearly all actives have a fitted effect of over 50% in size
Procedure, shortened: as §1

[7] = qHTS of pediatric cancer cell lines to identify multiple opportunities for drug repurposing: Primary screen for BT-12 cells (AID 1347101); further: nearly all actives have a fitted effect of over 25% in size
Procedure, shortened: as §2

[8] = qHTS of pediatric cancer cell lines to identify multiple opportunities for drug repurposing: Primary screen for LAN-5 cells (AID 1347100); details: LAN-5 neuroblastoma viability, CellTiter-Glo luminescence, 48 h; activity change, negative = cytotoxic: at 46 µM (top of the series) unless noted
Procedure, shortened: as §2

[9] = qHTS of pediatric cancer cell lines to identify multiple opportunities for drug repurposing: Primary screen for Rh18 cells (AID 1347102); further: nearly all actives have a fitted effect of over 65% in size
Procedure, shortened: as §2
Potency means the concentration at half of the fitted maximal effect; tags describe the fitted curve by direction and shape.

Row | SMILES | Potency [1] | Potency [2] | Potency [3] | Potency [4] | Potency [5] | Potency [6] | Potency [7] | Potency [8] | Potency [9]
1 | CC[C@@]1(O)C(=O)OCc2c1cc1n(c2=O)Cc2cc3ccccc3nc2-1 | active: 0.0137 µM | active: 0.0083 µM | active: 1.18 µM | active: 0.0469 µM | active: 0.121 µM |  |  |  | 
2 | O=[N+]([O-])c1c2ccccc2cc2ccccc12 | inconclusive: 39.6 µM [cytotoxic, partial curve, poor fit] | inconclusive: 34 µM [cytotoxic, single point] |  | inconclusive: 67.9 µM [cytotoxic, single point] |  | inconclusive: 15.2 µM [cytotoxic, partial curve, poor fit] | inactive |  | 
3 | Cc1c(C(=O)c2cccc3ccccc23)c2cccc3c2n1[C@H](CN1CCOCC1)CO3 | inconclusive: 34.3 µM [cytotoxic, single point] | active: 20.9 µM |  | inconclusive: 11.8 µM [cytotoxic, partial curve] |  |  |  | inconclusive: 26.4 µM [cytotoxic, single point] | active: 20.9 µM
4 | COc1ccc(C(c2ccc(OC)cc2)C(Cl)(Cl)Cl)cc1 | inconclusive: 44.4 µM [cytotoxic, single point] | active: 13.5 µM | inconclusive: 30.3 µM [cytotoxic, partial curve] | active: 30.3 µM | active: 49.8 µM | active: 42.8 µM |  | inconclusive: 24.1 µM [cytotoxic, single point] | inconclusive: 17.1 µM [cytotoxic, partial curve, poor fit]
5 | CN1CCN(c2ccc([N+](=O)[O-])c3no[n+]([O-])c23)CC1 | inconclusive: 43.2 µM [cytotoxic, single point] | inconclusive: 33.2 µM [cytotoxic, single point] |  |  |  | inconclusive: 23.5 µM [cytotoxic, partial curve] | inconclusive: 43.2 µM [cytotoxic, partial curve, poor fit] | inconclusive: 26.4 µM [cytotoxic, single point] | inconclusive: 33.2 µM [cytotoxic, single point]
6 | CN1[C@H]2CC(O)C[C@H]1[C@H]1O[C@H]12 (stereo partly specified) | inconclusive: 38.5 µM [cytotoxic, single point] | inconclusive: 29.6 µM [cytotoxic, single point] |  |  | inconclusive: 38.3 µM [cytotoxic, single point] |  |  | inconclusive: 26.4 µM [cytotoxic, single point] | inconclusive: 33.2 µM [cytotoxic, single point]
7 | [N-]=[N+]=CC(=O)OC[C@H](N)C(=O)O | inactive |  |  |  |  |  |  |  | 
8 | CC#C[C@]1(O)CC[C@H]2[C@@H]3C[C@H](C)C4=CC(=O)CC[C@]4(C)[C@H]3CC[C@@]21C | inconclusive: 21.9 µM [cytotoxic, single point] | inconclusive: 29.9 µM [cytotoxic, single point] |  |  |  | inconclusive: 26.6 µM [cytotoxic, single point] | inconclusive: 27.6 µM [cytotoxic, single point] | inconclusive: 15 µM [cytotoxic, single point] | inconclusive: 29.9 µM [cytotoxic, single point]
9 | CN1CCc2cc(Cl)c(O)cc2[C@H]2c3ccccc3CC[C@@H]21 | inconclusive: 13.8 µM [cytotoxic, partial curve, poor fit] | inactive |  |  | inconclusive: 13.7 µM [cytotoxic, single point] |  |  |  | inactive
10 | C[C@]12CCC(=O)C=C1CC[C@@H]1[C@H]3CC[C@](C)(O)[C@@]3(C)CC[C@@H]12 | inconclusive: 55.9 µM [cytotoxic, partial curve, poor fit] | inconclusive: 24.6 µM [cytotoxic, partial curve] | inconclusive: 34.7 µM [cytotoxic, partial curve] | active: 27.5 µM | inconclusive: 28.3 µM [cytotoxic, partial curve] | active: 34.7 µM | active: 28.6 µM | inconclusive: 21.9 µM [cytotoxic, partial curve, poor fit] | 
11 | Nc1ccc(Cl)cc1N | inconclusive: 17.8 µM [cytotoxic, partial curve, poor fit] | inconclusive: 38.6 µM [cytotoxic, single point] |  | inconclusive: 34.4 µM [cytotoxic, partial curve] | inconclusive: 1.25 µM [cytotoxic, full curve, poor fit] |  |  |  | inactive
12 | COP(=O)(OC)C(O)C(Cl)(Cl)Cl (stereo unspecified) | inactive | inactive |  |  |  |  |  |  | 
13 | C[C@]12C/C(=C/O)C(=O)C[C@@H]1CC[C@@H]1[C@@H]2CC[C@@]2(C)[C@H]1CC[C@]2(C)O | inconclusive: 43.7 µM [cytotoxic, single point] | inconclusive: 16.8 µM [cytotoxic, single point] |  | inconclusive: 29.9 µM [cytotoxic, single point] | inconclusive: 24.4 µM [cytotoxic, partial curve] | inconclusive: 21.1 µM [cytotoxic, single point] | inconclusive: 17.4 µM [cytotoxic, partial curve, poor fit] | inconclusive: 33.5 µM [cytotoxic, single point] | 
14 | O=C(N[C@@H](COc1ccc2[nH]c(=O)[nH]c2c1)c1ccccc1)c1cccn(Cc2ccc(F)c(F)c2)c1=O | inconclusive: 27.3 µM [cytotoxic, single point] | inconclusive: 26.4 µM [cytotoxic, single point] |  |  |  | inconclusive: 37.2 µM [cytotoxic, single point] | inconclusive: 24.3 µM [cytotoxic, partial curve, poor fit] |  | inconclusive: 16.6 µM [cytotoxic, partial curve, poor fit]
15 | Clc1ccc(C(c2ccc(Cl)cc2)C(Cl)(Cl)Cl)cc1 | inconclusive: 38.9 µM [cytotoxic, partial curve, poor fit] | inconclusive: 23.7 µM [cytotoxic, single point] |  | inconclusive: 29.9 µM [cytotoxic, single point] | inconclusive: 8.64 µM [cytotoxic, single point] | inconclusive: 10.6 µM [cytotoxic, partial curve] |  | inactive | 
16 | CC(C)c1cccc(C(C)C)c1O | inconclusive: 1.37 µM [cytotoxic, full curve] |  | inactive | inconclusive: 13.2 µM [cytotoxic, partial curve] |  |  |  |  | 
17 | CC1=C(O)C(=O)C=C2C1=CC=C1[C@@]2(C)CC[C@@]2(C)[C@@H]3C[C@](C)(C(=O)O)CC[C@]3(C)CC[C@]12C | active: 4.85 µM | active: 0.743 µM | inconclusive: 2.96 µM [cytotoxic, full curve, poor fit] |  | active: 3.04 µM |  | active: 2.73 µM | active: 1.87 µM | 
18 | C[C@]12CC[C@H]3[C@@H](CCC4=CC(=O)CC[C@@H]43)[C@@H]1CC[C@@H]2OC(=O)CCC1CCCCC1 | inconclusive: 15.5 µM [cytotoxic, partial curve] | inconclusive: 26.6 µM [cytotoxic, single point] |  | inconclusive: 21.1 µM [cytotoxic, single point] |  |  |  | inconclusive: 26.6 µM [cytotoxic, single point] | 
19 | Sc1ccccc1Cl | inactive | inactive |  | inactive |  |  | inactive |  | 
20 | Cc1c(N)nc([C@H](CC(N)=O)NC[C@@H](N)C(N)=O)nc1C(=O)N[C@H](C(=O)N[C@@H](C)[C@H](O)[C@@H](C)C(=O)N[C@@H](C(=O)NCCc1nc(-c2nc(C(=O)NCCC[S+](C)C)cs2)cs1)[C@@H](C)O)C(O[C@H]1O[C@H](CO)[C@H](O)[C@@H](O)[C@@H]1O[C@H]1O[C@H](CO)[C@@H](O)[C@H](OC(N)=O)[C@H]1O)c1cnc[nH]1 (stereo partly specified) | active: 1.37 µM | active: 1.32 µM |  |  | inactive |  |  | active: 0.526 µM | 
21 | COc1ccc2c(c1)CN(C)CC2c1ccc(Cl)c(Cl)c1 (stereo unspecified) | inconclusive: 30.6 µM [cytotoxic, single point] | inconclusive: 33.2 µM [cytotoxic, single point] |  |  | inconclusive: 34.1 µM [cytotoxic, single point] | inconclusive: 20.9 µM [cytotoxic, partial curve] | inconclusive: 27.3 µM [cytotoxic, single point] | active: 20.9 µM | 
22 | CCCCCCC(=O)CCCCCC/C=C/C[C@@H](O)[C@H](O)[C@@](N)(CO)C(=O)O | inactive | inactive |  | inconclusive: 18.4 µM [cytotoxic, single point] |  |  |  |  | inactive
23 | COC[C@H]1OC(=O)c2coc3c2[C@@]1(C)C1=C(C3=O)C2CCC(=O)[C@@]2(C)C[C@H]1OC(C)=O (stereo partly specified) | inconclusive: 21.7 µM [cytotoxic, partial curve] | active: 0.833 µM | inconclusive: 23.5 µM [cytotoxic, single point] | active: 4.69 µM | inconclusive: 30.4 µM [cytotoxic, single point] |  | inconclusive: 24.3 µM [cytotoxic, partial curve] |  | active: 20.9 µM
